Experimental data as given in the supplement of paper PMC12217912.
The list shows a part of the results. The full chains were built here from the parent and the listed change. Inactive controls read about 0.05.

B1: TEV protease; numbered along this chain (parent)
chain: MGESLFKGPRDYNPISSSICHLTNESDGHTTSLYGIGFGPFIITNKHLFRRNNGTLVVQSLHGVFKVKDTTTLQQHLVDGRDMIIIRMPKDFPPFPQKLKFREPQREERICLVTTNFQTKSMSSMVSDTSCTFPSGDGIFWKHWIQTKDGQCGSPLVSTRDGFIVGIHSASNFTNTNNYFTSVPKNFMELLTNQEAQQWVSGWRLNADSVLWGGHKVFMVKPEEPFQPVKEATQL

Variants of: B1
Experiment: raw area under fraction-flipped curve 0-4 h after induction (AUC4h, not background-subtracted), DNA-recorder readout of cleavage of the substrate (dimensionless); higher = more cleavage of the substrate by the protease variant
Conditions: temperature: 34 °C; time window: 0-4 h after rhamnose induction
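Note: Bxb1 expression induced with 0.2% (w/v) L-rhamnose at OD600 near 0.5, cultures sampled hourly, flipped fraction per protease–substrate barcode pair counted by paired-end Illumina sequencing.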

P94H
area with substrate ENLYEQS: 0.0645
area with substrate ENLYGQS: 0.067
area with substrate ENLYHQS: 0.069
area with substrate ENLYMQS: 0.0649
area with substrate ENLYNQS: 0.0766
area with substrate ENLYPQS: 0.0749
area with substrate ENLYSQS: 0.0684
area with substrate ENLYVQS: 0.01

Q74L
area with substrate ENLYEQS: 0.0622
area with substrate ENLYGQS: 0.0747
area with substrate ENLYIQS: 0.119
area with substrate ENLYKQS: 0.0634
area with substrate ENLYLQS: 0.0852
area with substrate ENLYNQS: 0.057
area with substrate ENLYRQS: 0.0571
area with substrate ENLYSQS: 0.0708
area with substrate ENLYYQS: 0.072

P225Y
area with substrate ENLYDQS: 0.0506
area with substrate ENLYEQS: 0.0743
area with substrate ENLYGQS: 0.0749
area with substrate ENLYHQS: 0.0632
area with substrate ENLYIQS: 0.114
area with substrate ENLYKQS: 0.0583
area with substrate ENLYNQS: 0.064
area with substrate ENLYQQS: 0.0842
area with substrate ENLYSQS: 0.0625
area with substrate ENLYTQS: 0.0637
area with substrate ENLYWQS: 0.0844

F173V
area with substrate ENLYEQS: 0.0621
area with substrate ENLYGQS: 0.0582
area with substrate ENLYHQS: 0.0566
area with substrate ENLYIQS: 0.0993
area with substrate ENLYKQS: 0.0949
area with substrate ENLYMQS: 0.0704
area with substrate ENLYNQS: 0.0895
area with substrate ENLYPQS: 0.0778
area with substrate ENLYQQS: 0.0633
area with substrate ENLYRQS: 0.0669
area with substrate ENLYTQS: 0.064
area with substrate ENLYVQS: 0.1
area with substrate ENLYWQS: 0.0663

T70C
area with substrate ENLYEQS: 0.0688
area with substrate ENLYHQS: 0.0769
area with substrate ENLYIQS: 0.1
area with substrate ENLYPQS: 0.0796
area with substrate ENLYQQS: 0.0614
area with substrate ENLYWQS: 0.0704
area with substrate ENLYYQS: 0.0946

R51T
area with substrate ENLYEQS: 0.0471
area with substrate ENLYHQS: 0.0815
area with substrate ENLYRQS: 0.0596
area with substrate ENLYVQS: 0.205

K90E
area with substrate ENLYEQS: 0.0588
area with substrate ENLYGQS: 0.0571
area with substrate ENLYHQS: 0.0205
area with substrate ENLYKQS: 0.0889
area with substrate ENLYMQS: 0.0753
area with substrate ENLYNQS: 0.0585
area with substrate ENLYPQS: 0.0697
area with substrate ENLYRQS: 0.0618
area with substrate ENLYSQS: 0.0802
area with substrate ENLYWQS: 0.0731

V229N
area with substrate ENLYDQS: 0.0689
area with substrate ENLYEQS: 0.0907
area with substrate ENLYHQS: 0.0753
area with substrate ENLYIQS: 0.145
area with substrate ENLYKQS: 0.063
area with substrate ENLYLQS: 0.0734
area with substrate ENLYNQS: 0.0719
area with substrate ENLYPQS: 0.0623
area with substrate ENLYQQS: 0.0586
area with substrate ENLYRQS: 0.0727
area with substrate ENLYTQS: 0.109
area with substrate ENLYVQS: 0.116
area with substrate ENLYWQS: 0.0882

G35Y
area with substrate ENLYEQS: 0.051
area with substrate ENLYGQS: 0.0575
area with substrate ENLYNQS: 0.0416
area with substrate ENLYVQS: 0.0434

K7F
area with substrate ENLYEQS: 0.0869
area with substrate ENLYGQS: 0.062
area with substrate ENLYHQS: 0.0682
area with substrate ENLYKQS: 0.0443
area with substrate ENLYMQS: 0.0778
area with substrate ENLYSQS: 0.0759
area with substrate ENLYYQS: 0.0704

K7C
area with substrate ENLYEQS: 0.0625
area with substrate ENLYHQS: 0.0769
area with substrate ENLYIQS: 0.0848
area with substrate ENLYKQS: 0.0562
area with substrate ENLYLQS: 0.0795
area with substrate ENLYMQS: 0.0814
area with substrate ENLYNQS: 0.0843
area with substrate ENLYQQS: 0.067
area with substrate ENLYRQS: 0.0603

P9T
area with substrate ENLYEQS: 0.062
area with substrate ENLYKQS: 0.0654
area with substrate ENLYNQS: 0.0663
area with substrate ENLYPQS: 0.0801
area with substrate ENLYSQS: 0.0983
area with substrate ENLYYQS: 0.0347

P9S
area with substrate ENLYEQS: 0.0669
area with substrate ENLYGQS: 0.0671
area with substrate ENLYHQS: 0.0769
area with substrate ENLYKQS: 0.0622
area with substrate ENLYMQS: 0.0929
area with substrate ENLYNQS: 0.071
area with substrate ENLYPQS: 0.0696
area with substrate ENLYRQS: 0.0709
area with substrate ENLYTQS: 0.0678
area with substrate ENLYWQS: 0.111
area with substrate ENLYYQS: 0.0647

F6L
area with substrate ENLYEQS: 0.0599
area with substrate ENLYHQS: 0.052
area with substrate ENLYLQS: 0.0594
area with substrate ENLYMQS: 0.0656
area with substrate ENLYRQS: 0.0552
area with substrate ENLYSQS: 0.0534
area with substrate ENLYTQS: 0.0759
area with substrate ENLYYQS: 0.0645

F6C
area with substrate ENLYEQS: 0.0737
area with substrate ENLYIQS: 0.0908
area with substrate ENLYLQS: 0.0777
area with substrate ENLYPQS: 0.0359
area with substrate ENLYQQS: 0.0602

L190I
area with substrate ENLYEQS: 0.0699
area with substrate ENLYKQS: 0.0984
area with substrate ENLYMQS: 0.0777
area with substrate ENLYNQS: 0.065
area with substrate ENLYPQS: 0.0753
area with substrate ENLYQQS: 0.0503
area with substrate ENLYSQS: 0.0758
area with substrate ENLYTQS: 0.0896

L190V
area with substrate ENLYEQS: 0.0752
area with substrate ENLYHQS: 0.117
area with substrate ENLYIQS: 0.124
area with substrate ENLYKQS: 0.0671
area with substrate ENLYLQS: 0.134
area with substrate ENLYNQS: 0.0588
area with substrate ENLYSQS: 0.0753
area with substrate ENLYTQS: 0.094
area with substrate ENLYVQS: 0.123

F163C
area with substrate ENLYEQS: 0.0717
area with substrate ENLYGQS: 0.0844
area with substrate ENLYHQS: 0.071
area with substrate ENLYKQS: 0.0358
area with substrate ENLYMQS: 0.106
area with substrate ENLYPQS: 0.0488
area with substrate ENLYSQS: 0.0771
area with substrate ENLYTQS: 0.097

H62P
area with substrate ENLYEQS: 0.0611
area with substrate ENLYGQS: 0.0682
area with substrate ENLYHQS: 0.0622
area with substrate ENLYKQS: 0.0491
area with substrate ENLYMQS: 0.0728
area with substrate ENLYVQS: 0.0799
area with substrate ENLYWQS: 0.0836

S158T
area with substrate ENLYEQS: 0.0473
area with substrate ENLYGQS: 0.045
area with substrate ENLYMQS: 0.0736
area with substrate ENLYPQS: 0.0625

L235R
area with substrate ENLYDQS: 0.0641
area with substrate ENLYIQS: 0.146
area with substrate ENLYPQS: 0.0899
